Experimental data taken from publication PMC4336329 (PLoS ONE, 2015).
About 2,200 (0.71%) of roughly 310,000 compounds showed an effect of 50% or more. Effects have a minus sign here. The list shows a part of the results.

Target: human ether-à-go-go-related gene (hERG) potassium channel (human, UniProt Q12809)
Assay: primary screen, population patch clamp on CHO cells stably expressing hERG

Sequence of human ether-à-go-go-related gene (hERG) potassium channel (Q12809 whole entry, looked up): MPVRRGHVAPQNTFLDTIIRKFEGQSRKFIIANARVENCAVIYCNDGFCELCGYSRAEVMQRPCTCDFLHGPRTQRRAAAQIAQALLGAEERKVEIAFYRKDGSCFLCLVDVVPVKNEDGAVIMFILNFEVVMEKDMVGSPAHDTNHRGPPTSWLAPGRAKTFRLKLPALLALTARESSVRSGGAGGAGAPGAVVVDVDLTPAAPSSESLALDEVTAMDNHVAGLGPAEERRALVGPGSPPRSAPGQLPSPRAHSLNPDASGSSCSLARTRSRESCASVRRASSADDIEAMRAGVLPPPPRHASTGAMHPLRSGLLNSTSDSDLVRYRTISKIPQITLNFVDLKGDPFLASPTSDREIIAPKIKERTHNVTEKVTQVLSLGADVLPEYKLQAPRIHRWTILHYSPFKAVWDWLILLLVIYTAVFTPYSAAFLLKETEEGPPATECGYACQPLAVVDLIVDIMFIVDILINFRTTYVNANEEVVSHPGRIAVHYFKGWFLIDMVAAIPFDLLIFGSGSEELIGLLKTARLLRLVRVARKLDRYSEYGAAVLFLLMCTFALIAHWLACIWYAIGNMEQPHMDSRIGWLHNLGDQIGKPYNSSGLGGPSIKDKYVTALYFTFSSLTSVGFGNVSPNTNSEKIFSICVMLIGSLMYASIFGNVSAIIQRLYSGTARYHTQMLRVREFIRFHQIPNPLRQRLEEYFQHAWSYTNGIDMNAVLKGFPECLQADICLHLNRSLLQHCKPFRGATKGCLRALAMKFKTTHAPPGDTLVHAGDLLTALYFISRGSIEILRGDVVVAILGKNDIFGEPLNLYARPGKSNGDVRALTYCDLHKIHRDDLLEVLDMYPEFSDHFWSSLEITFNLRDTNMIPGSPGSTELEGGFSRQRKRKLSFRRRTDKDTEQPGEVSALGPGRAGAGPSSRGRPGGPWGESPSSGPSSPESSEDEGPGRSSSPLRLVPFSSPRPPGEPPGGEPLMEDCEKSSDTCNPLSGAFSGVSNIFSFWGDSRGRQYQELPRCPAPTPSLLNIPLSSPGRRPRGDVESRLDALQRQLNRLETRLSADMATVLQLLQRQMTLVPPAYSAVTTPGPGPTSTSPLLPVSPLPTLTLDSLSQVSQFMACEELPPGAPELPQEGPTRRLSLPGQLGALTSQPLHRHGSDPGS

Compound	hERG current change (%, negative = inhibition) at 1uM [%]
CCC(C)NC(=O)C1CCN(S(=O)(=O)CC)CC1 (stereo not drawn)	9.03
Cc1cccc(OCC(=O)NCc2ccc(F)cc2)c1	9.91
CN1CCN(c2nc3ccccc3nc2C(C#N)S(=O)(=O)c2ccccc2)CC1 (stereo not drawn)	3.98
COc1ccc(-c2coc3cc(OC)cc(O)c3c2=O)cc1	22.4
Cc1ccc(C)c(N2CCN(C(=O)c3ccc(N4CCCC4=O)cc3)CC2)c1	-2.82
O=C1NC(c2cccc(Cl)c2)Oc2ccccc21 (stereo not drawn)	11
CN1C(=O)c2ccccc2C(C(=O)O)C1c1cccc([N+](=O)[O-])c1 (stereo not drawn)	13.6
O=C(O)[C@H](CO)Nc1ncnc2sc3c(c12)CCC3	11.9
CCOP(=O)(OCC)C(C)(C)NC(=O)c1cc([N+](=O)[O-])cc([N+](=O)[O-])c1	7.38
COc1ccc(OCc2nc3c4c(ncn3n2)-c2ccccc2CC42CCCC2)cc1	9.14
O=C(Cc1coc2ccc3ccccc3c12)N1CCN(c2ncccn2)CC1	6.24
CCOc1ccc(NC(=O)c2ccc(Cl)c(NC(=O)c3ccco3)c2)cc1	9.67
CCN(CC)C(=O)Oc1ccc(OC(=O)N(CC)CC)cc1	13.8
C=CCSc1nnc(C)c(/C=C/Nc2ccc(Cl)cc2)n1	7.38
COc1ccc(Cc2n[nH]c(=S)o2)cc1	10
CCCCOc1cccc(C2(C(=O)O)CCCC2)c1	-25.8
CCCc1cc(-c2n[nH]c(C(=O)OCC)c2-c2cscn2)c(O)cc1O	0.895
CCCCOP(=O)(OCCCC)/C(C#N)=C(/C)O	5.78
CCOC(=O)C1(Cc2ccccc2C)CCCN(C(=O)c2sccc2C)C1 (stereo not drawn)	12.4
NS(=O)(=O)c1cccc(NC(=O)COC(=O)Cn2cc(C(F)(F)F)ccc2=O)c1	17.4
Cc1ccc(N=Nc2c(C)[nH]n(-c3ccccc3)c2=O)cc1Br	8.79
CC(C)c1ccc(C2NC(=O)CCC2[N+](=O)[O-])cc1 (stereo not drawn)	-6.26

Compound	hERG current change (%, negative = inhibition) at 1uM [%]
CC1CCC2(CC1)NC(=O)N(Cc1cccc(C(F)(F)F)c1)C2=O (stereo not drawn)	16.2
O=C(CSc1nnc(-c2cccs2)n1-c1ccccc1)N1CCCc2ccccc21	3.35
CCCN(CC(=O)Nc1ccccc1C)C(=O)Cc1n[nH]c(=O)c2ccccc12	3.38
Cc1cc(NCc2ccc(F)cc2)nc2cc(Cl)ccc12	14.3
COC(=O)CCCn1nc(NC(=O)c2ccco2)cc1C	9.2
COc1ccc(S(=O)(=O)NCc2ccco2)cc1NC(=O)c1ccccc1	5.36
Cn1cc(Br)c(C(=O)Nc2ccc3c(C(F)(F)F)cc(=O)oc3c2)n1	13
O=C(Nc1ccc2c(c1)OCO2)Nc1ccc(Cl)cc1Cl	7.73
O=C(NN=C1CCN(Cc2ccccc2)CC1)c1cc2ccccc2cc1O	8.82
C/C(=C\CNc1ncnc2nc[nH]c12)CO	11.7
CCOC(=O)N1CCN(CC(=O)Nc2nc3ccc(OC)cc3s2)CC1	4.56
COc1ccc(CCN(Cc2cccs2)S(=O)(=O)c2ccc(-n3cnnn3)c(OC)c2)cc1OC	10.8
O=C(NCCc1ccccc1)C(=O)c1c(-c2ccccc2)cc2ccccn12	12.4
COc1ccccc1OCCn1cc(/C=N/NC(N)=S)c2ccccc21	6.65
CCCCn1c(N)c(N(CC(C)C)C(=O)CSCC(=O)Nc2ccc(C)cc2)c(=O)[nH]c1=O	15.3
O=C(O)/C=C\C(=O)Nc1ccc(N2CCN(c3ccc(Cl)cc3)CC2)cc1	22.4
Cc1ccc(C(=O)COC(=O)C(C)N2C(=O)C3C4CCC(C4)C3C2=O)cc1C (stereo not drawn)	4.6
O=C(O)CCCn1cc(NC(=O)COc2ccccc2F)cn1	17.5
N#C/C(=C/c1ccncc1)c1nc2ccccc2s1	5.07
Cc1c(NC(=O)Cc2cccs2)cccc1[N+](=O)[O-]	12.6
CCn1cc(C(=O)N[C@@H](C)C(=O)OC)c(=O)c2cc3c(cc21)OCO3	-0.822
COc1ccc(NC(=O)CC2CCCC2)cc1S(=O)(=O)N1CCCCC1	2.09

Compound	hERG current change (%, negative = inhibition) at 1uM [%]
Cn1c(=O)c2c(nc(SCC(=O)O)n2Cc2cc3c(cc2Cl)OCO3)n(C)c1=O	4.14
OCC1(Cc2ccccc2)CCN(Cc2cnc(-c3cccc4ccccc34)nc2)CC1	12.9
CCOCCCNC(=O)NC12CC3CC(CC(C3)C1)C2	20
CC(C)NC(=O)c1cc(-c2ccco2)nn1-c1ccc(Cl)cc1	4.07
CC(=O)N=c1sc2nc3ccccc3nc2n1N(C(C)=O)C(C)=O	24.5
COc1ccc(CC/C(C)=N\NC(N)=O)cc1	15
CC(=O)Nc1cc2c3c(c1)CCC(=O)N3CCC2	22.1
O=C(CNC(=O)c1ccc([N+](=O)[O-])cc1)N/N=C/c1c[nH]c2ccccc12	9.45
Cc1ccc([C@@H]2[C@@H]3C(=O)N(C)C(=O)[C@@H]3[C@]3(Cc4ccccc4)C(=O)N(Cc4ccccn4)CC(=O)N23)o1	14.5
CCCC(=O)Nc1nc(-c2ccccc2)c(CC)s1	4.11
COc1ccc(S(=O)(=O)c2c(C)c(NS(=O)(=O)c3ccccc3)cc(C)c2O)cc1	14.3
Cc1ccc(/C=C2\SC(=S)N(CC(=O)Nc3cccnc3)C2=O)cc1	-0.402
CCC(=O)N1c2ccc(S(=O)(=O)N3CCN(C)CC3)cc2CC1C (stereo not drawn)	4.4
COc1ccc(S(=O)(=O)N2CCOCC2)cc1OC	3.04
CN1CCN(S(=O)(=O)c2cccc(C(=O)Nc3ccccc3N3CCOCC3)c2)CC1	11.9
O=C(OCc1ccc2c(c1)OCO2)c1ccc(S(=O)(=O)N2CCCC2)cc1	3.44
COc1ccc(C(=O)Nc2ccc3[nH]c(-c4cccc(OC)c4)cc(=O)c3c2)cc1	11.8
COC(=O)Nc1c(-c2ccccc2)nc2ccc(Cl)cn12	12.9
O=C(Cc1ccsc1)NCc1ccccc1F	19.2
Cc1occc1-c1nnc(SCC(=O)NCCc2ccccc2)o1	10.4
O=C(c1sc2ccccc2c1Cl)N1CCN(c2ccccc2F)CC1	-6.14
COc1ccc(N(CC(=O)NC2CCCC2)C(=O)CCC(=O)Nc2nc(C)cs2)cc1OC	-6.07

Compound	hERG current change (%, negative = inhibition) at 1uM [%]
Cc1cc(C)c(OCCOCCN(C)C)c(Br)c1.O=C(O)C(=O)O	-3.91
Cn1c(N2CCC(C(N)=O)CC2)nc2c1c(=O)n(Cc1ccc(Br)cc1)c(=O)n2C	-24.6
CC1(C)CC(=O)C2=C(C1)OC(N)=C(C#N)C21CCN(C(=O)OCc2ccccc2)CC1	-0.0103
CCCC(=O)Nc1sc2c(c1C(=O)OCC)CC(C)(C)OC2	11
O=C(NC(=S)Nc1nc2ccccc2s1)c1cccs1	16.8
CCOC(=O)C1(Cc2ccc(OC)cc2)CCN(C(=O)CCc2cnccn2)CC1	10.2
COc1cccc(OC)c1C(=O)NC(=S)Nc1ccc2c(c1)OCCO2	13.5
CCCCn1c(Cc2ccccc2)n[nH]c1=S	9.59
Cc1ccc(S(=O)(=O)N2CCN(c3ccccc3)CC2)c(C)c1	16.7
Cc1ccc(-n2nc3c(N4CCC(C(=O)NCc5ccccc5C)CC4)nnc(C)c3c2C)cc1	11.3
O=C(COC(=O)CNC(=O)c1cccc([N+](=O)[O-])c1)Nc1cccc(S(=O)(=O)N2CCCCC2)c1	-5.96
CCN(CC)S(=O)(=O)c1ccc(/C=C/C(=O)Nc2ccc(F)cc2F)cc1	6.66
COC1Cc2ccccc2N(C(=O)N2CCN(CCO)CC2)c2ccccc21.Cl (stereo not drawn)	-6.58
C=C(C=O)CC1CC(O)[C@]2(C)OC3C[C@@H]4OC5C[C@]6(C)O[C@]7(C)CCC8OC9C[C@]%10(C)OC(/C(C)=C\CO)C(O)CC%10OC9CC(C)C8OC7CC6O[C@]5(C)C/C=C\C4OC3CC2O1 (stereo partly drawn)	7.21
CCN1CCCC(NC(=O)c2scc3c2CCCC3)C1 (stereo not drawn)	9.6
CCn1cc(C(=O)NCc2ccccc2OC)c(=O)c2ccc(C)nc21	18.3
CCOc1ccc(NC(=O)c2cccc(-n3cnnn3)c2)cc1	13.1
O=C(Nc1ccc(-c2nc3ncccc3o2)cc1)c1ccc(Br)o1	11.7
O=C(O)c1ccc(NC(=O)c2cn(-c3ccccc3)nc2-c2ccc(Cl)cc2)cc1	12
O=c1cc(C(F)(F)F)[nH]c2c(OC(F)(F)F)cccc12	4.32
O=C(N1CCOCC1)N1CCN(S(=O)(=O)c2ccc(Cl)cc2)CC1	3.43
